# Results from the supplement of paper PMC8728848.
# Some of the results follow.
# Assays:
# Test in all cases: glycan array binding signal (z-score within array); higher = stronger binding
# Details in all cases: glycan notation: IUPAC condensed, linker removed
# [1] = target: Fuc(a1-3)[Gal(b1-4)]GlcNAc(b1-2)Man
# Method in brief: (§1)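 Negative Z-scores can be read as non-binding. The Z-score is calculated within each array and then averaged across arrays of one protein sequence at different concentrations or buffers and across linkers. Arrays, 3228 in all, were curated from the Consortium for Functional Glycomics database and kept only where the protein sequence was available.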
# [2] = target: Fuc(a1-3)[Gal(b1-4)]GlcNAc(b1-2)Man(a1-3)[Fuc(a1-3)[Gal(b1-4)]GlcNAc(b1-2)Man(a1-6)]Man(b1-4)GlcNAc(b1-4)GlcNAc
# Method in brief: as §1
# [3] = target: Fuc(a1-3)[Gal(b1-4)]GlcNAc(b1-2)Man(a1-3)[Fuc(a1-3)[Gal(b1-4)]GlcNAc(b1-2)Man(a1-6)]Man(b1-4)GlcNAc(b1-4)[Fuc(a1-6)]GlcNAc
# Method in brief: as §1
# [4] = target: Fuc(a1-3)[Gal(b1-4)]GlcNAc(b1-3)Gal(b1-3)[Fuc(a1-4)]GlcNAc
# Method in brief: as §1
# [5] = target: Fuc(a1-3)[Gal(b1-4)]GlcNAc(b1-3)Gal(b1-4)Glc
# Method in brief: as §1
# [6] = target: Fuc(a1-3)[Gal(b1-4)]GlcNAc(b1-3)Gal(b1-4)[Fuc(a1-3)]Glc
# Method in brief: as §1
# [7] = target: Fuc(a1-3)[Gal(b1-4)]GlcNAc(b1-3)Gal(b1-4)[Fuc(a1-3)]GlcNAc
# Method in brief: as §1
# [8] = target: Fuc(a1-3)[Gal(b1-4)]GlcNAc(b1-3)Gal(b1-4)[Fuc(a1-3)]GlcNAc(b1-3)Gal(b1-4)[Fuc(a1-3)]GlcNAc
# Method in brief: as §1
# [9] = target: Fuc(a1-3)[Gal(b1-4)]GlcNAc(b1-3)GalNAc
# Method in brief: as §1
# [10] = target: Fuc(a1-3)[Gal(b1-4)]GlcNAc(b1-3)[Fuc(a1-2)]Gal(b1-4)Glc
# Method in brief: as §1
# [11] = target: Fuc(a1-3)[Gal(b1-4)]GlcNAc(b1-3)[Fuc(a1-3)[Gal(b1-4)]GlcNAc(b1-6)]Gal(b1-4)Glc
# Method in brief: as §1
# [12] = target: Fuc(a1-3)[Gal(b1-4)]GlcNAc(b1-4)Gal(b1-4)[Fuc(a1-3)]GlcNAc
# Method in brief: as §1
# [13] = target: Fuc(a1-3)[Gal(b1-4)]GlcNAc(b1-4)Gal(b1-4)[Fuc(a1-3)]GlcNAc(b1-4)Gal(b1-4)[Fuc(a1-3)]GlcNAc
# Method in brief: as §1
# [14] = target: Fuc(a1-3)[Gal(b1-4)]GlcNAc(b1-6)GalNAc
# Method in brief: as §1
# [15] = target: Fuc(a1-3)[Gal(b1-4)]GlcNAc(b1-6)[Gal(b1-3)GlcNAc(b1-3)]Gal(b1-4)Glc
# Method in brief: as §1
# [16] = target: Fuc(a1-3)[Gal(b1-4)]GlcNAc6S
# Method in brief: as §1
# [17] = target: Fuc(a1-3)[Gal3S(b1-4)]Glc
# Method in brief: as §1
# [18] = target: Fuc(a1-3)[Gal3S(b1-4)]GlcNAc
# Method in brief: as §1
# [19] = target: Fuc(a1-3)[Gal3S(b1-4)]GlcNAc(b1-3)Gal
# Method in brief: as §1
# [20] = target: Fuc(a1-3)[Gal3S(b1-4)]GlcNAc(b1-3)Gal(b1-4)Glc
# Method in brief: as §1
# [21] = target: Fuc(a1-3)[Gal3S(b1-4)]GlcNAc6S
# Method in brief: as §1
# [22] = target: Fuc(a1-3)[Gal3S(b1-4)]GlcNAc6S(b1-3)Gal(b1-4)Glc
# Method in brief: as §1
# [23] = target: Fuc(a1-3)[Gal6S(b1-4)]GlcNAc(b1-3)Gal(b1-4)Glc
# Method in brief: as §1
# [24] = target: Fuc(a1-3)[GalNAc(b1-4)]GlcNAc
# Method in brief: as §1
# [25] = target: Fuc(a1-3)[GalNAc(b1-4)]GlcNAc6S
# Method in brief: as §1
# Fuc(a1-4)GlcNAc = target: Fuc(a1-4)GlcNAc
# Method in brief: as §1
# Fuc(a1-6)GlcNAc = target: Fuc(a1-6)GlcNAc
# Method in brief: as §1
# Fuc(b1-3)GlcNAc = target: Fuc(b1-3)GlcNAc
# Method in brief: as §1
# Gal(a1-2)Gal = target: Gal(a1-2)Gal
# Method in brief: as §1
# Gal(a1-3)Gal = target: Gal(a1-3)Gal
# Method in brief: as §1
# Gal(a1-3)Gal(b1-3)GlcNAc = target: Gal(a1-3)Gal(b1-3)GlcNAc
# Method in brief: as §1
# [26] = target: Gal(a1-3)Gal(b1-3)GlcNAc(b1-2)Man
# Method in brief: as §1
# [27] = target: Gal(a1-3)Gal(b1-3)GlcNAc(b1-2)Man(a1-3)[Gal(a1-3)Gal(b1-3)GlcNAc(b1-2)Man(a1-6)]Man(b1-4)GlcNAc(b1-4)GlcNAc
# Method in brief: as §1
# [28] = target: Gal(a1-3)Gal(b1-3)GlcNAc(b1-3)GalNAc
# Method in brief: as §1
# [29] = target: Gal(a1-3)Gal(b1-3)GlcNAc(b1-6)GalNAc
# Method in brief: as §1
# [30] = target: Gal(a1-3)Gal(b1-3)[Fuc(a1-4)]GlcNAc(b1-2)Man(a1-3)[Gal(a1-3)Gal(b1-3)[Fuc(a1-4)]GlcNAc(b1-2)Man(a1-6)]Man(b1-4)GlcNAc(b1-4)GlcNAc
# Method in brief: as §1
# Gal(a1-3)Gal(b1-4)Glc = target: Gal(a1-3)Gal(b1-4)Glc
# Method in brief: as §1
binder,measurement,setting,value
"PNA (Arachis hypogaea), P02872 (protein) MKPFCVFLTFFLLLAASSKKVDSAETVSFNFNSFSEGNPAINFQGDVTVLSNGNIQLTNLNKVNSVGRVLYAMPVRIWSSATGNVASFLTSFSFEMKDIKDYDPADGIIFFIAPEDTQIPAGSIGGGTLGVSDTKGAGHFVGVEFDTYSNSEYNDPPTDHVGIDVNSVDSVKTVPWNSVSGAVVKVTVIYDSSTKTLSVAVTNDNGDITTIAQVVDLKAKLPERVKFGFSASGSLGGRQIHLIRSWSFTSTLITTTRRSIDNNEKKIMNMASA",glycan array binding signal (z-score),[1],-0.225
same,glycan array binding signal (z-score),[2],-0.106
same,glycan array binding signal (z-score),[3],-0.162
same,glycan array binding signal (z-score),[4],-0.117
same,glycan array binding signal (z-score),[5],-0.195
same,glycan array binding signal (z-score),[6],-0.195
same,glycan array binding signal (z-score),[7],-0.21
same,glycan array binding signal (z-score),[8],-0.202
same,glycan array binding signal (z-score),[9],-0.139
same,glycan array binding signal (z-score),[10],-0.195
same,glycan array binding signal (z-score),[11],-0.195
same,glycan array binding signal (z-score),[12],-0.095
same,glycan array binding signal (z-score),[13],-0.121
same,glycan array binding signal (z-score),[14],0.024
same,glycan array binding signal (z-score),[15],-0.083
same,glycan array binding signal (z-score),[16],-0.158
same,glycan array binding signal (z-score),[17],-0.195
same,glycan array binding signal (z-score),[18],-0.16
same,glycan array binding signal (z-score),[19],-0.195
same,glycan array binding signal (z-score),[20],-0.195
same,glycan array binding signal (z-score),[21],-0.117
same,glycan array binding signal (z-score),[22],-0.195
same,glycan array binding signal (z-score),[23],-0.195
same,glycan array binding signal (z-score),[24],-0.127
same,glycan array binding signal (z-score),[25],-0.239
same,glycan array binding signal (z-score),Fuc(a1-4)GlcNAc,-0.191
same,glycan array binding signal (z-score),Fuc(a1-6)GlcNAc,-0.195
same,glycan array binding signal (z-score),Fuc(b1-3)GlcNAc,-0.175
same,glycan array binding signal (z-score),Gal(a1-2)Gal,-0.169
same,glycan array binding signal (z-score),Gal(a1-3)Gal,-0.253
same,glycan array binding signal (z-score),Gal(a1-3)Gal(b1-3)GlcNAc,-0.185
same,glycan array binding signal (z-score),[26],-0.354
same,glycan array binding signal (z-score),[27],-0.115
same,glycan array binding signal (z-score),[28],-0.229
same,glycan array binding signal (z-score),[29],-0.229
same,glycan array binding signal (z-score),[30],-0.197
same,glycan array binding signal (z-score),Gal(a1-3)Gal(b1-4)Glc,-0.147
